These results are taken from the supplement of paper PMC10126150.

Sequences with one replicate were seen in a single cluster, so their values are uncertain.

The subject of this data set is ATP. The data set is described as follows: switch fluorescence ratio, 500 uM ATP over buffer (Cy3 cluster intensity, sum of 5 cycles each) (fold (ratio)); higher = stronger signal-on switching upon ATP binding; sequences stand for … in TCGTCGGCAGCGTCAGATGTGTATAAGAGACAGTTTTTTTTTTTTTTTTTTTTTTTTT…TC. The note with it: aptamer strand: ATP DNA aptamer (quencher-CACCTGGGGGAGTATTGCGGAGGAAGG + anchor), 100 nM annealed; ATP concentration: 500 uM; one replicate. The procedure, abridged: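 Between each of five buffer/ATP cycles, the flow-cell was stripped with NaOH and re-annealed. Each cycle imaged Cy3-labelled switching-strand clusters, annealed to 100 nM quencher-labelled ATP aptamer on a modified Illumina MiSeq flow-cell, first in selection buffer and then after 15 min with 500 uM ATP at 22 °C. The fluorescence ratio is summed target-cycle over summed buffer-cycle Cy3 intensity per cluster, averaged per switch-domain sequence, with clusters outside 100-1000 RFU excluded.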
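Also: ATP exposure 15 min at 22 °C before imaging.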

Regarding GTTTCCTTAG, the switch fluorescence ratio is 0.973.
Consider CGGGGCGCTG, for which the switch fluorescence ratio stood at 1.02.
In the case of GGGCAGCAGA it was 1.04; in that of TTCCCGAGAC, 2.23.
With GATCGGCCTA, the switch fluorescence ratio came out at 1.01.
For the sequence GGGATAGTC, the switch fluorescence ratio worked out at 0.971.
Consider AGTAAATACT, for which the switch fluorescence ratio turned out to be 1.31.
For TTGCTCCTCG, the switch fluorescence ratio came out at 1.01.
The result for TTACAAAGGG reads 0.989; that for TAACGGTTGC, 0.994.
For the sequence TCGTTGTG, the switch fluorescence ratio came to 0.985.
Regarding GCCACGATTT, the switch fluorescence ratio stood at 0.996.
Regarding GGTACCTGAT, the switch fluorescence ratio was 1.2.
On to CCGTGGGGGA, for which the switch fluorescence ratio is 1.07.
Consider CGTCTTTCTC, for which the switch fluorescence ratio was found to be 1.
For TTCGCGTTCA, the switch fluorescence ratio is 0.997.
As for TTAGCCTGCG, the switch fluorescence ratio came out at 1.08.
The result for ACGGGCGCGC reads 0.977.
Regarding ACGGATTGTT, the switch fluorescence ratio was found to be 0.971.
Consider ACGGCTAAAT, for which the switch fluorescence ratio was found to be 1.04.
As for AGTTGCTGTG, the switch fluorescence ratio is 1.01.
Turning to TTCTCTTGCG, the switch fluorescence ratio turned out to be 0.972.
Take ACCCTGTGAT: the switch fluorescence ratio is 0.983.
The result for TCAGGCAACT reads 0.99.
On to GGCTGCTGGT, for which the switch fluorescence ratio was determined as 1.05.
Turning to TTATCCCCAA, the switch fluorescence ratio came out at 1.11.
As to TTTCGGAAGA, the switch fluorescence ratio was found to be 1.01.
For the sequence TGCGTCGACT, the switch fluorescence ratio is 0.968.
For the sequence ATAGTGGCT, the switch fluorescence ratio came out at 1.02.
In the case of TGAACTATTG it was 1.03; in that of CATATTCATC, 0.995.
As for GCTAACTTTC, the switch fluorescence ratio worked out at 1.07.
On to CGATTTTTCT, for which the switch fluorescence ratio was 1.07.
The result for TTATTATGTA reads 0.989; that for TCTTTGATCA, 1.05.
For the sequence TATCAGCATT, the switch fluorescence ratio stood at 1.06.
Consider AAGTCCACAG, for which the switch fluorescence ratio was 1.11.
On to GTTTAAGATG, for which the switch fluorescence ratio worked out at 0.98.
Take GAGAGTTAGT: the switch fluorescence ratio was 1.01.
Consider ACCAGACACG, for which the switch fluorescence ratio is 1.03.
In the case of ACCTGGTGAG it was 1.1; in that of TCGTGTTCAA, 1.03.
In the case of CGTATTTTCT it was 0.976; in that of CAGCTTTGCA, 0.956; in that of GGGGTTTCAC, 1.02.
TCAACGATCC: the switch fluorescence ratio turned out to be 1.09.
For AAAGGGTGAC, the switch fluorescence ratio was determined as 0.962.
As for AATCATTGTG, the switch fluorescence ratio was 1.07.
For ATTTTTTAGC, the switch fluorescence ratio was 0.918.
The result for ATGTGATATA reads 0.971; that for AGTTCATT, 0.97.
With TCAAAACGAG, the switch fluorescence ratio worked out at 1.03.
The result for GAAAGTGCTT reads 0.954; that for GTGCAAAGTA, 1.03.
The result for CGTCAGTATA reads 1.02; that for CCGGGGGCAT, 2.73.
With GGTTAATTCC, the switch fluorescence ratio was found to be 1.08.
CTGCAGCCTG: the switch fluorescence ratio came out at 1.09.
For CTTTCATCTG, the switch fluorescence ratio came out at 1.05.
As to GCTAAGTTAA, the switch fluorescence ratio stood at 0.986.
In the case of TTCCATTTGA, the switch fluorescence ratio was 0.967.
For GTGAGGTATG, the switch fluorescence ratio worked out at 0.972.
For GTGATAGGCT, the switch fluorescence ratio worked out at 0.988.
In the case of TATCCATATT it was 1.01.
In the case of AGGGTGTAAA it was 0.996.
In the case of TCCAGGCGCA, the switch fluorescence ratio amounted to 1.4.
Consider GTGAGTCTGG, for which the switch fluorescence ratio worked out at 1.01.
